Experimental data from PubChem BioAssay AID1347165 (National Center for Advancing Translational Sciences (NCATS), 2019).
About 5,700 (2.6%) of roughly 220,000 compounds were called active. Inconclusive results, whose numbers are uncertain, are shown with a selection of clear calls. Calls come from the whole dose curve; as a rule, active = well fitted inhibition curve with a large enough effect; inconclusive = small, poorly fitted or top-dose-only effect; inactive = no such curve, though single readings can be large or run the other way. Potencies of inconclusive entries are doubtful fits and often do not repeat.

molecular target: Lysine-specific demethylase 5B (Homo sapiens) (UniProt Q9UGL1); assay: Primary screen for KDM5B Histone Demethylases FDH-coupled qHTS; conditions: FDH-coupled NADH fluorescence (FDH is formaldehyde dehydrogenase); activity change, negative = inhibition: at 57.7 µM (top of the series) unless noted; note: nearly all actives have a fitted effect of over 70% in size; for activity change, negative = inhibition: 0% is about no effect
Chain of UniProt Q9UGL1 (Q9UGL1 whole entry, looked up): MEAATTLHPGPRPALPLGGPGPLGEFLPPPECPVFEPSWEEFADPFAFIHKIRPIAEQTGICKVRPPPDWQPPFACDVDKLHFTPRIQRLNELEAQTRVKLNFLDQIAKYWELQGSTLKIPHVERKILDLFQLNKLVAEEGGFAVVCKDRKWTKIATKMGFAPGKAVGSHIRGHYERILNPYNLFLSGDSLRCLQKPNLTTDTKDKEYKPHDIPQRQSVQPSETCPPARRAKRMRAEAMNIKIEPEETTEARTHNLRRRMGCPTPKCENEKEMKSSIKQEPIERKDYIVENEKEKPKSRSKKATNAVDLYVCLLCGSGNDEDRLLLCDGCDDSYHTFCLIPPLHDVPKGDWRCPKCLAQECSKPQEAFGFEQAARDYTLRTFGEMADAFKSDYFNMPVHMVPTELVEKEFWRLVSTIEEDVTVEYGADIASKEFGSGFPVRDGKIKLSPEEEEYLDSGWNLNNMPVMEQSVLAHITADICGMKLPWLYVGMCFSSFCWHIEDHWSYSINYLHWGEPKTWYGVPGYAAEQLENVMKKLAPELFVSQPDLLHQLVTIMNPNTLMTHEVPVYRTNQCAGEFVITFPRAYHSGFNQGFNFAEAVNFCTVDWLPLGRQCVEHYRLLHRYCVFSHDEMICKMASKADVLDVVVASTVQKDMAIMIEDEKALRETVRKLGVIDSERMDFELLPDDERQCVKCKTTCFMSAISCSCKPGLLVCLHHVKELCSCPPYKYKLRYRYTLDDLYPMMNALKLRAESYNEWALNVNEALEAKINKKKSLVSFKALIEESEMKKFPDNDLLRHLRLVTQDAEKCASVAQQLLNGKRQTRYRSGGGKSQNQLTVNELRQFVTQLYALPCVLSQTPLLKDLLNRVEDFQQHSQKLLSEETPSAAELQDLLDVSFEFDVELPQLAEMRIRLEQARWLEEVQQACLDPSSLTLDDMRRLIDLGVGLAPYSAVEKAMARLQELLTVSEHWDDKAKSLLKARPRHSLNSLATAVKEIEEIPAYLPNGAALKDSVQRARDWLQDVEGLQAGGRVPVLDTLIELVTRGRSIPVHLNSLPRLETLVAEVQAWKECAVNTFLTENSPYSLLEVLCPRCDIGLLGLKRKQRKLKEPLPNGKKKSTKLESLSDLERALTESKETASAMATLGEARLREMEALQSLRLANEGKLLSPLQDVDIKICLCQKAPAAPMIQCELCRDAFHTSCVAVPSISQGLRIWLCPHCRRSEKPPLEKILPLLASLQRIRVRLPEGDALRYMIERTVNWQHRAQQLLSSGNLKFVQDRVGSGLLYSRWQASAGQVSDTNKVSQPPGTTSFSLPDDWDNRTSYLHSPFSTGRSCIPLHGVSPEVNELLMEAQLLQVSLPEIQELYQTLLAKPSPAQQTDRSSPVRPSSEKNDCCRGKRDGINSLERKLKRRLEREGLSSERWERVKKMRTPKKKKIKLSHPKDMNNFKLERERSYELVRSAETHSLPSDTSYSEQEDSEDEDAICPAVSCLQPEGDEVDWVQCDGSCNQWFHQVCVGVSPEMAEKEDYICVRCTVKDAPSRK
In short: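 Coupled FDH/NAD⁺ fluorescence readout. KDM5BΔAP 200 nM final; compound titration, 10 min RT preincubation; substrate mix 12.5 µM H3K4me3, 25 µM 2-OG, 50 µM Fe(II), 100 µM ascorbate, 0.25 mM NAD⁺, 0.25 U/mL FDH; ΔRFU over 30 min.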
Potency is the fitted concentration of half-maximal effect; tags give direction and shape of the fitted curve.

Row | Structure (SMILES) | activity change, negative = inhibition | Potency
1 | CCC(CC)CN1CC2(CCN(C(=O)CCc3cc(=O)[nH]o3)CC2)OC1=O | inactive: 39.8% | –
2 | CCCCc1ccc(NC(=S)NNC=O)cc1 | inactive: -5.06% | –
3 | CCO[C@H]1CN(C(=O)CCc2nc3c(C)c(C)ccc3[nH]2)C[C@@H]1O | – | inconclusive: 35.5 µM [inhibitor, single point]
4 | Cc1cccc(-n2c(=O)c3c(c4cc(C)ccc4n3C)n(CC(=O)Nc3ccc(C)c(C)c3)c2=O)c1 | – | inconclusive: 2.82 µM [inhibitor, partial curve, poor fit]
5 | CC1=C[C@@H](CNS(C)(=O)=O)[C@H](C(C)C)C[C@H]1Cc1nnc(-c2cncn2C)o1 | – | inconclusive: 28.2 µM [inhibitor, single point]
6 | Cc1ccc(C)c2c(=O)cc(CSc3nnc(-c4cccc(F)c4)n3C)[nH]c12 | inactive: 16.9% | –
7 | O=C(NCc1ccc(Cl)cc1)c1cc2cccc3c2n1CCS3 | – | inconclusive: 31.6 µM [inhibitor, partial curve, poor fit]
8 | CC(C)CCN(C1CCOCC1)C1CCN(S(=O)(=O)c2cccnc2)CC1 | inactive: 10.6% | –
9 | Cc1cc(-c2cnc3n[nH]c(-c4ccc5c(c4)OCO5)c3n2)ccn1 | inactive: -11.7% [at 86.2 µM] | –
10 | Cc1nc2nc(SCC(=O)NCCCN3CCCC3)nn2c(C)c1Cc1ccccc1Cl | – | inconclusive: 11.2 µM [inhibitor, partial curve, poor fit]
11 | CCN(CC)S(=O)(=O)c1ccc(-c2nc(C#N)c(NCC(C)C)o2)cc1 | – | inconclusive: 11.2 µM [inhibitor, partial curve, poor fit]
12 | O=C(Nc1ccccc1F)N1CC(Oc2cccc(-c3nc(-c4ccccc4)no3)c2)C1 | – | inconclusive: 14.1 µM [inhibitor, partial curve]
13 | CCCCN1C(C(=O)c2ccccc2)=C(OC(=O)CC)c2ccccc2S1(=O)=O | – | inconclusive: 12.6 µM [inhibitor, partial curve, poor fit]
14 | COc1cc(C2c3c(-c4ccccc4O)n[nH]c3C(=O)N2Cc2ccncc2)cc(OC)c1OC (stereo not given) | – | inactive
15 | CCc1noc(-c2cn(C3CCN(C(=O)c4ccc(Cl)cc4)C3)nn2)n1 (stereo not given) | inactive: 1.84% | –
16 | O=C(Cn1ccn2nc3c(c2c1=O)CCCCC3)Nc1ccccc1 | – | inconclusive: 39.8 µM [inhibitor, single point]
17 | COc1ccccc1NC(=O)CSc1nnc(-n2nc(C)cc2C)n1N | – | inconclusive: 22.4 µM [inhibitor, single point]
18 | CC(C)N(C)Cc1nnnn1CC(=O)NCC1CCCN(c2ncccn2)C1 (stereo not given) | – | inconclusive: 17.8 µM [inhibitor, partial curve, poor fit]
19 | Cn1ncc2c(C(=O)NCc3ccc(F)cc3)cc(C(C)(C)C)nc21 | – | active: 44.7 µM
20 | O=C(NC1CCN(c2cc(-c3ccc(Cl)cc3)[nH]n2)CC1)c1cccc(F)c1 | – | inconclusive: 31.6 µM [inhibitor, partial curve, poor fit]

Row | Structure (SMILES) | activity change, negative = inhibition | Potency
21 | COC(=O)C1=CN(Cc2ccc(OC)cc2)C=C(C(=O)OC)C1c1ccccc1OC(C)C | – | inconclusive: 25.1 µM [inhibitor, partial curve, poor fit]
22 | COc1cc(OC)cc(-c2nc(C3CC(=O)N(c4ccc(F)c(Cl)c4)C3)no2)c1 (stereo not given) | – | inconclusive: 25.1 µM [inhibitor, single point]
23 | COc1ccccc1CC(=O)Nc1ccc2c3c(cccc13)CC2 | inactive: -21.4% | –
24 | CCN(CC)c1cc(NC2CCCCC2)c2c3c(onc13)-c1ccccc1C2=O | – | inconclusive: 15.8 µM [inhibitor, partial curve, poor fit]
25 | COc1ccc(NC(=O)COc2c(C)cccc2C)c2cccnc12 | – | inconclusive: 39.8 µM [inhibitor, single point]
26 | CCOc1ccc(NC(=O)Cc2cccc3ccccc23)c2cccnc12 | – | inconclusive: 10 µM [inhibitor, partial curve, poor fit]
27 | O=C(OC/C=C/c1ccccc1)C1=NN(C2CCS(=O)(=O)C2)C(=O)CC1 (stereo not given) | inactive: -2.18% | –
28 | CC1=C[C@@H](CNC(=O)CCC(=O)O)[C@H](C(C)C)C[C@H]1CC(=O)NCc1ccccn1 | – | inconclusive: 56.2 µM [inhibitor, single point]
29 | NCc1cccc(-c2ccc3c(c2)C(=O)N2CC[C@H](NC(=O)c4cccc(F)c4)[C@H]2C(=O)N3)c1 | – | inconclusive: 31.6 µM [inhibitor, single point]
30 | CCCNC(=O)N1CCC2(CC1)CC(c1ccccc1)C(=O)N2C (stereo not given) | – | inconclusive: 28.2 µM [inhibitor, partial curve, poor fit]
31 | Cc1noc(C)c1C(=O)N1Cc2ccccc2CC2(CCCN(CC3CCNC3)C2)C1 (stereo not given) | – | inconclusive: 70.8 µM [inhibitor, partial curve, poor fit]
32 | CCCCN(CC)CCCNC(=O)c1ccc2c(c1)N(Cc1ccc(C)cc1)C(=O)c1ccccc1S2 | – | inconclusive: 44.7 µM [inhibitor, single point]
33 | CC1=NS(=O)(=O)N(C)C=C1C(=O)OCc1noc(-c2ccccc2C)n1 | – | inconclusive: 14.1 µM [inhibitor, partial curve, poor fit]
34 | N#C/C(=C\C=C\c1ccco1)C(=O)NC1CCCCCC1 | – | inconclusive: 28.2 µM [inhibitor, partial curve, poor fit]
35 | CCCCC(=O)OCc1cc(=O)n2nc(C3CC3)sc2n1 | – | inconclusive: 14.1 µM [inhibitor, partial curve, poor fit]
36 | C=CCNC(=O)NCc1cccc(C(N)=O)c1 | inactive: 31.5% | –
37 | Cc1nnc(N2CCCC(C(=O)Nc3cc(F)ccc3F)C2)c2nn(-c3ccccc3)c(C)c12 (stereo not given) | – | inconclusive: 31.6 µM [inhibitor, partial curve, poor fit]
38 | CC(C)CCNC(=O)CCc1nnc(-c2ccc(OC(C)C)cc2)[nH]c1=O | inactive: -8.45% | –
39 | O=C1CCN(Cc2cccc(F)c2)CCCC(C(=O)NCc2ccncc2)CCN1 (stereo not given) | – | inconclusive: 22.4 µM [inhibitor, single point]
40 | CC1CCN(c2nc3ccccc3nc2SCC(=O)Nc2ccccc2C(C)C)CC1 | – | inconclusive: 28.2 µM [inhibitor, partial curve, poor fit]
